PubChem BioAssay AID1625 (Sanford-Burnham Center for Chemical Genomics, 2009)
The list shows a part of the results. Shown are side measurements of this screen, not its main read-out; they come without a call. The list favours compounds with an active or inconclusive main result.

Experiment: up-regulation of insulin promoter-GFP reporter – imaging, high-content screening, mouse beta cells (AID 1625);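 note: total cells summed across four imaged fields per well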
Details: MIN6 insulin promoter-GFP reporter, measured here: cytotoxicity, nuclei count, at 5 µM

Row | Structure (SMILES) | cell count
1 | Cc1ccc(NC(=O)CCn2cccc2)cc1Cl | 1420 cells
2 | Cc1ccc(C(=O)NN2C(=O)/C(=C/c3cn(C)c4ccccc34)SC2=S)cc1 | 1170 cells
3 | CC1CCCCC1NC(=O)C1CCCN1S(=O)(=O)c1cccc2nsnc12 (configuration not stated) | 467 cells
4 | Nc1c(C(=O)C2CC2)sc2nc(-c3ccccc3)cc(C(F)(F)F)c12 | 1260 cells
5 | Cc1cc(S(=O)(=O)NC2CCCCC2)c(C)s1 | 1300 cells
6 | COc1nc(OC)nc(N2CCC(C(=O)NCc3cccs3)CC2)n1 | 1240 cells
7 | CCCCCCN(C(=O)CCCCCN1C(=O)NC(c2ccc(-c3ccccc3)cc2)C(C(=O)OCc2ccccc2)=C1C)C(C(=O)NCCCC)c1ccc(OCC(=O)OC)c(C(=O)OC)c1 (configuration not stated) | 444 cells
8 | CN1/C(=C\C=C(/C#N)C(=O)Nc2ccccc2F)C(C)(C)c2ccccc21 | 1260 cells
9 | O=C(Nc1cnn(Cc2ccc(F)cc2)c1)c1cc(-c2cccs2)on1 | 243 cells
10 | Cc1nc(NC(C)c2ccccc2)c2oc3ccccc3c2n1 (configuration not stated) | 321 cells
11 | O=C(Cn1ncn2c(cc3ccccc32)c1=O)NCc1ccco1 | 1270 cells
12 | Nc1ncnc(Nc2cc(Cl)cc(Cl)c2)c1[N+](=O)[O-] | 394 cells
13 | COc1ccc2nc(SCC(=O)Nc3ccc(S(=O)(=O)N4CCCC4)cc3)c(C#N)cc2c1 | 977 cells
14 | N#C/C(=C/c1ccc(N2CCOCC2)o1)C(=O)Nc1ccccc1 | 1510 cells
15 | CCOCCN1CCN(c2c(CC)c(C)nc3cc(-c4cc(OC)cc(OC)c4)nn23)CC1 | 446 cells
16 | COC(=O)C1CCCN1S(=O)(=O)c1ccc2ccccc2c1 (configuration not stated) | 487 cells
17 | O=C1C(Cl)=C(NCCN2CCCCC2)C(=O)c2ccccc21 | 497 cells
18 | N#C/C(=C\N1CCN(Cc2ccc3c(c2)OCO3)CC1)c1nc2ccccc2s1 | 1200 cells
19 | CCN(CC)c1ccc2cc(C#N)c(=O)oc2c1 | 1430 cells
20 | COc1ccc(NC(=O)N2CCN(c3nc(-c4cccc(OC)c4)cs3)CC2)cc1 | 481 cells
21 | Cc1ccc(-c2nc(C(Cl)Cl)c3ccccc3n2)cc1 | 473 cells
22 | Cc1cc(C)c2nc(NNC(=O)c3cc(-c4cccs4)nc4ccccc34)sc2c1 | 1180 cells
23 | Cc1ccc(-c2cc(N)n(-c3ccccc3)n2)cc1 | 1290 cells
24 | COC(=O)c1cc2c(-c3ccccc3)c(C)c3ccccn3c-2c1C(=O)OC | 955 cells
25 | O=[N+]([O-])c1ccc(N/N=C/c2cn(Cc3ccc(F)cc3)c3ccccc23)nc1 | 1260 cells
26 | N#C/C(=C/c1ccc(N2CCCCCC2)o1)c1ccc(Cl)cc1 | 1010 cells

Row | Structure (SMILES) | cell count
27 | Nc1c(Cl)ncnc1N/N=C/c1ccccn1 | 355 cells
28 | CN(C)c1ccc(/C=C2\SC(=O)N(CCc3nnc(N)s3)C2=O)cc1 | 906 cells
29 | CCN(CC)c1ccc(/C=C(\C#N)c2nc(-c3cccs3)c(NC(C)=O)s2)cc1 | 1190 cells
30 | O=c1c2cccc3c(N4CCOCC4)ccc(c32)c2nc3ccccc3n12 | 757 cells
31 | CC1CC(C)CN(C(=O)c2cccc3c2-c2ccccc2C3=O)C1 (configuration not stated) | 980 cells
32 | COc1ccc(C(=O)N2CCN(c3ccc([N+](=O)[O-])c(NCCc4ccc(OC)c(OC)c4)c3)CC2)cc1 | 331 cells
33 | CCN(CC)c1ccc(/C=N/NC(=O)c2cnccn2)c(O)c1 | 463 cells
34 | CC[n+]1c(/C=C2\C=C(C)CC(C)C2)sc2ccccc21 (configuration not stated) | 352 cells
35 | COc1ccc(-c2c[n+]3c(n2-c2ccccc2)CCCCC3)cc1 | 449 cells
36 | O=S1(=O)c2cccc3cccc(c23)N1Cc1nnc(-c2ccccc2Br)o1 | 497 cells
37 | NC(N)=N/N=C/c1c(Cl)cccc1Cl | 340 cells
38 | CCOc1cccc(C2c3c(oc4cc(C)c(C)cc4c3=O)C(=O)N2CCCN(C)C)c1 (configuration not stated) | 230 cells
39 | CCC(C)N1C(=O)/C(=C/c2c(NCCCOC(C)C)nc3c(C)cccn3c2=O)SC1=S (configuration not stated) | 1560 cells
40 | O=[N+]([O-])c1ccc(N=Nc2c(Cl)cc(O)cc2Cl)cc1 | 237 cells
41 | CC(C)CC(NC(=O)C1CCC(C)CC1)C(=O)NCc1cccnc1 (configuration not stated) | 450 cells
42 | Cc1ccc(NC(=O)/C=C/c2ccc([N+](=O)[O-])s2)c(C)c1 | 854 cells
43 | COc1cc2c3nnc(-c4ccc(F)cc4)c-3cn(Cc3ccc(F)cc3)c2cc1OC | 648 cells
44 | CCN1/C(=C\C=C(C(C)=O)C(C)=O)Sc2ccccc21 | 1000 cells
45 | O=C1C(Nc2ccccc2)=C/C(=N/S(=O)(=O)c2cccs2)c2ccccc21 | 334 cells
46 | Cc1cc2oc(=O)cc(Cn3ncc(Cl)c(Cl)c3=O)c2cc1Cl | 332 cells
47 | O=C(Nc1ccc2c(c1)OCO2)c1ccc2c(c1)OCO2 | 369 cells
48 | CCCCn1c(=N)n(CC(O)COc2ccccc2)c2ccccc21 (configuration not stated) | 435 cells
49 | CCOCCCNc1nc2c(C)cccn2c(=O)c1/C=C1\SC(=S)N(C(C)CC)C1=O (configuration not stated) | 1290 cells
50 | CCC(=Nc1ccc(Cc2ccncc2)cc1)c1c(O)n(C)c(=O)n(C)c1=O | 230 cells
51 | CCCCCCCn1c2c(c(=N)c3ccccc31)CCC2 | 178 cells
52 | COC(=O)C1=NNCC12CC(=O)N(c1ccc(Br)cc1)C2=O (configuration not stated) | 393 cells
